“Also recorded” adds a separate entry of the source. Not every detail of the peptide structures is certain; ends, links or a residue may be inferred. At least one structure is not confirmed: it was looked up by name or label, or the drawing left a doubt.
Test: Rat renal blood flow studies
Format: in vivo, Sprague Dawley rats
Conditions: 1 mg/kg intravenously; for % change in RBF over baseline: anesthetized male Sprague Dawley rats, renal blood flow recorded for 45 min
Procedure: Male Sprague Dawley rats (˜250-300 g) were anesthetized with sodium pentobarbital (50 mg/kg), the trachea was cannulated with PE-205 tubing to maintain airway patency, and temperature was maintained at 37° C. with a heated surgical plate. A 1.4 F pressure catheter (Millar Inc., Houston, TX) was advanced into the right carotid artery to measure aortic blood pressure. The right jugular vein was cannulated with PE-50 tubing for administration of test articles. The left kidney was exposed by a retroperitoneal incision, and a Doppler flow probe (Model 0.5 VB, Transonic System Inc., Ithaca, NY) was attached to the left renal artery to monitor blood flow. Sodium pentobarbital (15 mg/kg, intraperitoneal) was supplemented after completion of these surgical procedures. Following a 10-15 min equilibration, the relaxin was administered at 1 mg/kg intravenously in a dosing volume of 0.15 to 1.82 mL/kg over 30 seconds via an infusion pump (Harvard Apparatus, Holliston, MA). Blood pressure, heart rate and renal blood flow were continuously recorded for 45 min after relaxin administration using a Millar MPVS Ultra Signal Conditioning unit connected to a desktop computer running LabChart 7-Pro data acquisition software (ADInstruments, Dunedin, New Zealand) (Table 5). Table 5. Rat renal blood flow changes (abbreviations as in Table 3).

SMILES | % change in RBF over baseline | effect on renal blood flow (in words) (rats, listed as AQ1-GGGGS-Glu^γ (SEQ ID NO: 139)-C14-COOH, 1 mg/kg)
CC[C@H](C)[C@@H]1NC(=O)[C@H](C)NC(=O)[C@H]([C@@H](C)CC)NC(=O)[C@H](CCC(N)=O)NC(=O)[C@H](C)NC(=O)[C@H](CCCNC(=N)N)NC(=O)[C@H](C(C)C)NC(=O)[C@H](CC(C)C)NC(=O)[C@H](CCC(=O)O)NC(=O)[C@H](CCCNC(=N)N)NC(=O)CNC(=O)[C@@H](NC(=O)[C@H](CC(C)C)NC(=O)[C@H](CCCCN)NC(=O)[C@@H](NC(=O)[C@@H](NC(=O)[C@H](CCC(=O)O)NC(=O)[C@H](CCC(=O)O)NC(=O)[C@H](CCSC)NC(=O)[C@H](Cc2c[nH]c3ccccc23)NC(=O)[C@H](CO)NC(=O)[C@H](C)N)C(C)C)[C@@H](C)CC)CSSC[C@@H]2NC(=O)[C@@H](NC(=O)[C@H](CCCCN)NC(=O)[C@H](CC(N)=O)NC(=O)[C@H](C)NC(=O)[C@H](CC(C)C)NC(=O)[C@H](C)NC(=O)[C@H](CO)NC(=O)[C@H](Cc3ccc(O)cc3)NC(=O)[C@H](CC(C)C)NC(=O)[C@@H](N)Cc3ccc(C(C)=NOCCNC(=O)CNC(=O)CNC(=O)CNC(=O)[C@H](CCC(=O)O)NC(=O)[C@H](CCC(=O)O)NC(=O)[C@H](CCC(=O)O)NC(=O)CC[C@H](NC(=O)CCCCCCCCCCCCC(=O)O)C(=O)O)cc3)CSSC[C@H](NC(=O)CNC(=O)[C@H](C(C)C)NC(=O)[C@H](Cc3c[nH]cn3)NC2=O)C(=O)N[C@@H]([C@@H](C)O)C(=O)N[C@@H](CCCCN)C(=O)N[C@@H](CCCNC(=N)N)C(=O)N[C@@H](CO)C(=O)N[C@@H](CC(C)C)C(=O)N[C@@H](C)C(=O)N[C@@H](CCCNC(=N)N)C(=O)N[C@@H](Cc2ccccc2)C(=O)N[C@H](C(=O)O)CSSC[C@@H](C(=O)NCC(=O)N[C@@H](CCSC)C(=O)N[C@@H](CO)C(=O)N[C@H](C(=O)N[C@@H](Cc2c[nH]c3ccccc23)C(=O)N[C@@H](CO)C(=O)O)[C@@H](C)O)NC1=O [AQ1-GGGEEE-Glu^γ-C13-COOH] | +11% | –
CC[C@H](C)[C@@H]1NC(=O)[C@H](C)NC(=O)[C@H]([C@@H](C)CC)NC(=O)[C@H](CCC(N)=O)NC(=O)[C@H](C)NC(=O)[C@H](CCCNC(=N)N)NC(=O)[C@H](C(C)C)NC(=O)[C@H](CC(C)C)NC(=O)[C@H](CCC(=O)O)NC(=O)[C@H](CCCNC(=N)N)NC(=O)CNC(=O)[C@@H](NC(=O)[C@H](CC(C)C)NC(=O)[C@H](CCCCN)NC(=O)[C@@H](NC(=O)[C@@H](NC(=O)[C@H](CCC(=O)O)NC(=O)[C@H](CCC(=O)O)NC(=O)[C@H](CCSC)NC(=O)[C@H](Cc2c[nH]c3ccccc23)NC(=O)[C@H](CO)NC(=O)[C@H](C)N)C(C)C)[C@@H](C)CC)CSSC[C@@H]2NC(=O)[C@@H](NC(=O)[C@H](CCCCN)NC(=O)[C@H](CC(N)=O)NC(=O)[C@H](C)NC(=O)[C@H](CC(C)C)NC(=O)[C@H](C)NC(=O)[C@H](CO)NC(=O)[C@H](Cc3ccc(O)cc3)NC(=O)[C@H](CC(C)C)NC(=O)[C@@H](N)Cc3ccc(C(C)=NOCCNC(=O)CNC(=O)CNC(=O)CNC(=O)CNC(=O)[C@H](CO)NC(=O)CC[C@H](NC(=O)CCCCCCCCCCCCC(=O)O)C(=O)O)cc3)CSSC[C@H](NC(=O)CNC(=O)[C@H](C(C)C)NC(=O)[C@H](Cc3c[nH]cn3)NC2=O)C(=O)N[C@@H]([C@@H](C)O)C(=O)N[C@@H](CCCCN)C(=O)N[C@@H](CCCNC(=N)N)C(=O)N[C@@H](CO)C(=O)N[C@@H](CC(C)C)C(=O)N[C@@H](C)C(=O)N[C@@H](CCCNC(=N)N)C(=O)N[C@@H](Cc2ccccc2)C(=O)N[C@H](C(=O)O)CSSC[C@@H](C(=O)NCC(=O)N[C@@H](CCSC)C(=O)N[C@@H](CO)C(=O)N[C@H](C(=O)N[C@@H](Cc2c[nH]c3ccccc23)C(=O)N[C@@H](CO)C(=O)O)[C@@H](C)O)NC1=O [AQ1-GGGGS-Glu^γ-C13-COOH] | +2% | –
CC[C@H](C)[C@@H]1NC(=O)[C@H](C)NC(=O)[C@H]([C@@H](C)CC)NC(=O)[C@H](CCC(N)=O)NC(=O)[C@H](C)NC(=O)[C@H](CCCNC(=N)N)NC(=O)[C@H](C(C)C)NC(=O)[C@H](CC(C)C)NC(=O)[C@H](CCC(=O)O)NC(=O)[C@H](CCCNC(=N)N)NC(=O)CNC(=O)[C@@H](NC(=O)[C@H](CC(C)C)NC(=O)[C@H](CCCCN)NC(=O)[C@@H](NC(=O)[C@@H](NC(=O)[C@H](CCC(=O)O)NC(=O)[C@H](CCC(=O)O)NC(=O)[C@H](CCSC)NC(=O)[C@H](Cc2c[nH]c3ccccc23)NC(=O)[C@H](CO)NC(=O)[C@H](C)N)C(C)C)[C@@H](C)CC)CSSC[C@@H]2NC(=O)[C@@H](NC(=O)[C@H](CCCCN)NC(=O)[C@H](CC(N)=O)NC(=O)[C@H](C)NC(=O)[C@H](CC(C)C)NC(=O)[C@H](C)NC(=O)[C@H](CO)NC(=O)[C@H](Cc3ccc(O)cc3)NC(=O)[C@H](CC(C)C)NC(=O)[C@@H](N)Cc3ccc(/C(C)=N/OCCNC(=O)CNC(=O)CNC(=O)CNC(=O)CNC(=O)[C@H](CO)NC(=O)CC[C@H](NC(=O)CCCCCCCCCCCCCC(=O)O)C(=O)O)cc3)CSSC[C@H](NC(=O)CNC(=O)[C@H](C(C)C)NC(=O)[C@H](Cc3c[nH]cn3)NC2=O)C(=O)N[C@@H]([C@@H](C)O)C(=O)N[C@@H](CCCCN)C(=O)N[C@@H](CCCNC(=N)N)C(=O)N[C@@H](CO)C(=O)N[C@@H](CC(C)C)C(=O)N[C@@H](C)C(=O)N[C@@H](CCCNC(=N)N)C(=O)N[C@@H](Cc2ccccc2)C(=O)N[C@H](C(=O)O)CSSC[C@@H](C(=O)NCC(=O)N[C@@H](CCSC)C(=O)N[C@@H](CO)C(=O)N[C@H](C(=O)N[C@@H](Cc2c[nH]c3ccccc23)C(=O)N[C@@H](CO)C(=O)O)[C@@H](C)O)NC1=O [AQ1-GGGGS-Glu^γ-C14-COOH] | +10% | improved renal blood flow; also recorded: good renal blood flow results
CC[C@H](C)[C@@H]1NC(=O)[C@H](C)NC(=O)[C@H]([C@@H](C)CC)NC(=O)[C@H](CCC(N)=O)NC(=O)[C@H](C)NC(=O)[C@H](CCCNC(=N)N)NC(=O)[C@H](C(C)C)NC(=O)[C@H](CC(C)C)NC(=O)[C@H](CCC(=O)O)NC(=O)[C@H](CCCNC(=N)N)NC(=O)CNC(=O)[C@@H](NC(=O)[C@H](CC(C)C)NC(=O)[C@H](CCCCN)NC(=O)[C@@H](NC(=O)[C@@H](NC(=O)[C@H](CCC(=O)O)NC(=O)[C@H](CCC(=O)O)NC(=O)[C@H](CCSC)NC(=O)[C@H](Cc2c[nH]c3ccccc23)NC(=O)[C@H](CO)NC(=O)[C@H](C)N)C(C)C)[C@@H](C)CC)CSSC[C@@H]2NC(=O)[C@@H](NC(=O)[C@H](CCCCN)NC(=O)[C@H](CC(N)=O)NC(=O)[C@H](C)NC(=O)[C@H](CC(C)C)NC(=O)[C@H](C)NC(=O)[C@H](CO)NC(=O)[C@H](Cc3ccc(O)cc3)NC(=O)[C@H](CC(C)C)NC(=O)[C@@H](N)Cc3ccc(C(C)=NOCCNC(=O)CNC(=O)CNC(=O)CNC(=O)[C@H](CCCCN)NC(=O)[C@H](CCCCN)NC(=O)[C@H](CCCCN)NC(=O)CC[C@H](NC(=O)CCCCCCCCCCCCC(=O)O)C(=O)O)cc3)CSSC[C@H](NC(=O)CNC(=O)[C@H](C(C)C)NC(=O)[C@H](Cc3c[nH]cn3)NC2=O)C(=O)N[C@@H]([C@@H](C)O)C(=O)N[C@@H](CCCCN)C(=O)N[C@@H](CCCNC(=N)N)C(=O)N[C@@H](CO)C(=O)N[C@@H](CC(C)C)C(=O)N[C@@H](C)C(=O)N[C@@H](CCCNC(=N)N)C(=O)N[C@@H](Cc2ccccc2)C(=O)N[C@H](C(=O)O)CSSC[C@@H](C(=O)NCC(=O)N[C@@H](CCSC)C(=O)N[C@@H](CO)C(=O)N[C@H](C(=O)N[C@@H](Cc2c[nH]c3ccccc23)C(=O)N[C@@H](CO)C(=O)O)[C@@H](C)O)NC1=O [AQ1-GGGKKK-Glu^γ-C13-COOH] | +9% | –
